Data taken from the supplement of paper PMC12217912.
The other results are listed elsewhere or left out. The full chains were built here from the parent and the listed change. Inactive controls read about 0.05.

B1: TEV protease; numbered along this chain (parent)
chain: MGESLFKGPRDYNPISSSICHLTNESDGHTTSLYGIGFGPFIITNKHLFRRNNGTLVVQSLHGVFKVKDTTTLQQHLVDGRDMIIIRMPKDFPPFPQKLKFREPQREERICLVTTNFQTKSMSSMVSDTSCTFPSGDGIFWKHWIQTKDGQCGSPLVSTRDGFIVGIHSASNFTNTNNYFTSVPKNFMELLTNQEAQQWVSGWRLNADSVLWGGHKVFMVKPEEPFQPVKEATQL

Variants of: B1
Assay: raw area under fraction-flipped curve 0-4 h after induction (AUC4h, not background-subtracted), DNA-recorder readout of cleavage of the substrate (dimensionless); higher = more cleavage of the substrate by the protease variant
Conditions: temperature: 34 °C; time window: 0-4 h after rhamnose induction
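Also: Bxb1 expression induced with 0.2% (w/v) L-rhamnose at OD600 near 0.5, cultures sampled hourly, flipped fraction per protease–substrate barcode pair counted by paired-end Illumina sequencing.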

Row | Variant | area with substrate ECLYFQS | area with substrate EELYFQS | area with substrate EKLYFQS | area with substrate EMLYFQS | area with substrate ERLYFQS | area with substrate ESLYFQS | area with substrate ETLYFQS | area with substrate EVLYFQS | area with substrate EYLYFQS | area with substrate EDLYFQS
1 | MGESLFKGPRDYNPISSSICHLTNESDGHTTSLYGIGFGPFIITNKHLFRRNNGTLVVQSLHGVFKVKDTTTLQQHLVDGRDMIIIRMPKDFPPFPQKLKFREPQREERICLVTTNFQTKSMSSMVSDTSCTFRSGDGIFWKHWIQTKDGQCGSPLVSTRDGFIVGIHSASNFTNTNNYFTSVPKNFMELLTNQEAQQWVSGWRLNADSVLWGGHKVFMVKPEEPFQPVKEATQL [P134R] | 0.0805 | 0.0862 | 0.0933 | 0.0867 | 0.0914 | 0.0928 | 0.1 | 0.0931 | 0.0858 | 
2 | MGESLFKGPRDYNPISSSICHLTNESDGHTTSLYGIGFGPFIITNKHLFRRNNGTLVVQSLHGVFKVKDTTTLQQHLVDGRDMIIIRMPKDFPPFPQKLKFREPQREERICLVTTNFQTKSMSSMVSDTSCTFPHGDGIFWKHWIQTKDGQCGSPLVSTRDGFIVGIHSASNFTNTNNYFTSVPKNFMELLTNQEAQQWVSGWRLNADSVLWGGHKVFMVKPEEPFQPVKEATQL [S135H] | 0.0636 | 0.0721 |  | 0.0693 | 0.0675 | 0.0637 |  |  |  | 0.0749
3 | MGESLFKGPRDYNPISSSICHLTNESDGHTTSLYGIGFGPFIITNKHLFRRNNGTLVVQSLHGVFKVKDTTTLQQHLVDGRDMIIIRMPKDFPPFPQKLKFREPQREERICLVTTNFQTKSMSSMVSDTSCTFPSGQGIFWKHWIQTKDGQCGSPLVSTRDGFIVGIHSASNFTNTNNYFTSVPKNFMELLTNQEAQQWVSGWRLNADSVLWGGHKVFMVKPEEPFQPVKEATQL [D137Q] | 0.106 |  |  | 0.103 | 0.0615 | 0.104 | 0.109 | 0.0852 | 0.0988 | 0.151
4 | MGESLFKGPRDYNPISSSICHLTNESDGHTTSLYGIGFGPFIITNKHLFRRNNGTLVVQSLHGVFKVKDTTTLQQHLVDGRDMIIIRMPKDFPPFPQKLKFREPQREERICLVTTNFQTKSMSSMVSDTSCTFPSGDGTFWKHWIQTKDGQCGSPLVSTRDGFIVGIHSASNFTNTNNYFTSVPKNFMELLTNQEAQQWVSGWRLNADSVLWGGHKVFMVKPEEPFQPVKEATQL [I139T] | 0.16 |  |  |  | 0.106 |  |  | 0.167 |  | 0.166
5 | MGESLFKGPRDYNPISSSICHLTNESDGHTTSLYGIGFGPFIITNKHLFRRNNGTLVVQSLHGVFKVKDTTTLQQHLVDGRDMIIIRMPKDFPPFPQKLKFREPQREERICLVTTNFQTKSMSSMVSDTSCTFPSGDGIFWNHWIQTKDGQCGSPLVSTRDGFIVGIHSASNFTNTNNYFTSVPKNFMELLTNQEAQQWVSGWRLNADSVLWGGHKVFMVKPEEPFQPVKEATQL [K142N] | 0.0682 |  |  | 0.114 |  | 0.0909 |  | 0.0869 |  | 
6 | MGESLFKGPRDYNPISSSICHLTNESDGHTTSLYGIGFGPFIITNKHLFRRNNGTLVVQSLHGVFKVKDTTTLQQHLVDGRDMIIIRMPKDFPPFPQKLKFREPQREERICLVTTNFQTKSMSSMVSDTSCTFPSGDGIFWKHWNQTKDGQCGSPLVSTRDGFIVGIHSASNFTNTNNYFTSVPKNFMELLTNQEAQQWVSGWRLNADSVLWGGHKVFMVKPEEPFQPVKEATQL [I145N] | 0.109 |  |  | 0.132 |  |  | 0.133 |  |  | 0.132
7 | MGESLFKGPRDYNPISSSICHLTNESDGHTTSLYGIGFGPFIITNKHLFRRNNGTLVVQSLHGVFKVKDTTTLQQHLVDGRDMIIIRMPKDFPPFPQKLKFREPQREERICLVTTNFQTKSMSSMVSDTSCTFPSGDGIFWKHWIQSKDGQCGSPLVSTRDGFIVGIHSASNFTNTNNYFTSVPKNFMELLTNQEAQQWVSGWRLNADSVLWGGHKVFMVKPEEPFQPVKEATQL [T147S] | 0.091 |  |  |  | 0.0685 | 0.0768 |  | 0.0541 | 0.0843 | 
8 | MGESLFKGPRDYNPISSSICHLTNESDGHTTSLYGIGFGPFIITNKHLFRRNNGTLVVQSLHGVFKVKDTTTLQQHLVDGRDMIIIRMPKDFPPFPQKLKFREPQREERICLVTTNFQTKSMSSMVSDTSCTFPSGDGIFWKHWIQTLDGQCGSPLVSTRDGFIVGIHSASNFTNTNNYFTSVPKNFMELLTNQEAQQWVSGWRLNADSVLWGGHKVFMVKPEEPFQPVKEATQL [K148L] | 0.0751 |  |  | 0.0924 |  |  |  | 0.0971 |  | 
9 | MGESLFKGPRDYNPISSSICHLTNESDGHTTSLYGIGFGPFIITNKHLFRRNNGTLVVQSLHGVFKVKDTTTLQQHLVDGRDMIIIRMPKDFPPFPQKLKFREPQREERICLVTTNFQTKSMSSMVSDTSCTFPSGDGIFWKHWIQTKDYQCGSPLVSTRDGFIVGIHSASNFTNTNNYFTSVPKNFMELLTNQEAQQWVSGWRLNADSVLWGGHKVFMVKPEEPFQPVKEATQL [G150Y] | 0.0578 |  |  |  |  | 0.0515 |  | 0.0937 |  | 0.0613
10 | MGESLFKGPRDYNPISSSICHLTNESDGHTTSLYGIGFGPFIITNKHLFRRNNGTLVVQSLHGVFKVKDTTTLQQHLVDGRDMIIIRMPKDFPPFPQKLKFREPQREERICLVTTNFQTKSMSSMVSDTSCTFPSGDGIFWKHWIQTKDGQCCSPLVSTRDGFIVGIHSASNFTNTNNYFTSVPKNFMELLTNQEAQQWVSGWRLNADSVLWGGHKVFMVKPEEPFQPVKEATQL [G153C] | 0.0506 |  | 0.0596 |  | 0.0601 | 0.0526 | 0.0558 |  |  | 
11 | MGESLFKGPRDYNPISSSICHLTNESDGHTTSLYGIGFGPFIITNKHLFRRNNGTLVVQSLHGVFKVKDTTTLQQHLVDGRDMIIIRMPKDFPPFPQKLKFREPQREERICLVTTNFQTKSMSSMVSDTSCTFPSGDGIFWKHWIQTKDGQCLSPLVSTRDGFIVGIHSASNFTNTNNYFTSVPKNFMELLTNQEAQQWVSGWRLNADSVLWGGHKVFMVKPEEPFQPVKEATQL [G153L] | 0.0481 |  | 0.0669 |  | 0.0562 | 0.0321 | 0.0715 |  |  | 

Same assay, conditions: temperature: 34 °C; time window: 0-4 h after rhamnose induction

Row | Variant | area with substrate EGLYFQS | area with substrate EHLYFQS | area with substrate ELLYFQS | area with substrate EILYFQS | area with substrate EQLYFQS | area with substrate EWLYFQS | area with substrate EPLYFQS
12 | MGESLFKGPRDYNPISSSICHLTNESDGHTTSLYGIGFGPFIITNKHLFRRNNGTLVVQSLHGVFKVKDTTTLQQHLVDGRDMIIIRMPKDFPPFPQKLKFREPQREERICLVTTNFQTKSMSSMVSDTSCTFPHGDGIFWKHWIQTKDGQCGSPLVSTRDGFIVGIHSASNFTNTNNYFTSVPKNFMELLTNQEAQQWVSGWRLNADSVLWGGHKVFMVKPEEPFQPVKEATQL [S135H] | 0.0667 | 0.0646 | 0.0755 |  |  |  | 
13 | MGESLFKGPRDYNPISSSICHLTNESDGHTTSLYGIGFGPFIITNKHLFRRNNGTLVVQSLHGVFKVKDTTTLQQHLVDGRDMIIIRMPKDFPPFPQKLKFREPQREERICLVTTNFQTKSMSSMVSDTSCTFPSGQGIFWKHWIQTKDGQCGSPLVSTRDGFIVGIHSASNFTNTNNYFTSVPKNFMELLTNQEAQQWVSGWRLNADSVLWGGHKVFMVKPEEPFQPVKEATQL [D137Q] |  |  | 0.0576 | 0.0898 | 0.0848 | 0.106 | 
14 | MGESLFKGPRDYNPISSSICHLTNESDGHTTSLYGIGFGPFIITNKHLFRRNNGTLVVQSLHGVFKVKDTTTLQQHLVDGRDMIIIRMPKDFPPFPQKLKFREPQREERICLVTTNFQTKSMSSMVSDTSCTFPSGDGTFWKHWIQTKDGQCGSPLVSTRDGFIVGIHSASNFTNTNNYFTSVPKNFMELLTNQEAQQWVSGWRLNADSVLWGGHKVFMVKPEEPFQPVKEATQL [I139T] | 0.175 |  |  |  |  |  | 0.123
15 | MGESLFKGPRDYNPISSSICHLTNESDGHTTSLYGIGFGPFIITNKHLFRRNNGTLVVQSLHGVFKVKDTTTLQQHLVDGRDMIIIRMPKDFPPFPQKLKFREPQREERICLVTTNFQTKSMSSMVSDTSCTFPSGDGIFWNHWIQTKDGQCGSPLVSTRDGFIVGIHSASNFTNTNNYFTSVPKNFMELLTNQEAQQWVSGWRLNADSVLWGGHKVFMVKPEEPFQPVKEATQL [K142N] |  |  | 0.083 | 0.0882 |  | 0.109 | 
16 | MGESLFKGPRDYNPISSSICHLTNESDGHTTSLYGIGFGPFIITNKHLFRRNNGTLVVQSLHGVFKVKDTTTLQQHLVDGRDMIIIRMPKDFPPFPQKLKFREPQREERICLVTTNFQTKSMSSMVSDTSCTFPSGDGIFWKHWNQTKDGQCGSPLVSTRDGFIVGIHSASNFTNTNNYFTSVPKNFMELLTNQEAQQWVSGWRLNADSVLWGGHKVFMVKPEEPFQPVKEATQL [I145N] |  |  | 0.0891 | 0.126 | 0.111 |  | 
17 | MGESLFKGPRDYNPISSSICHLTNESDGHTTSLYGIGFGPFIITNKHLFRRNNGTLVVQSLHGVFKVKDTTTLQQHLVDGRDMIIIRMPKDFPPFPQKLKFREPQREERICLVTTNFQTKSMSSMVSDTSCTFPSGDGIFWKHWIQSKDGQCGSPLVSTRDGFIVGIHSASNFTNTNNYFTSVPKNFMELLTNQEAQQWVSGWRLNADSVLWGGHKVFMVKPEEPFQPVKEATQL [T147S] |  | 0.112 |  |  |  |  | 
18 | MGESLFKGPRDYNPISSSICHLTNESDGHTTSLYGIGFGPFIITNKHLFRRNNGTLVVQSLHGVFKVKDTTTLQQHLVDGRDMIIIRMPKDFPPFPQKLKFREPQREERICLVTTNFQTKSMSSMVSDTSCTFPSGDGIFWKHWIQTLDGQCGSPLVSTRDGFIVGIHSASNFTNTNNYFTSVPKNFMELLTNQEAQQWVSGWRLNADSVLWGGHKVFMVKPEEPFQPVKEATQL [K148L] |  |  | 0.0454 | 0.0911 |  |  | 
19 | MGESLFKGPRDYNPISSSICHLTNESDGHTTSLYGIGFGPFIITNKHLFRRNNGTLVVQSLHGVFKVKDTTTLQQHLVDGRDMIIIRMPKDFPPFPQKLKFREPQREERICLVTTNFQTKSMSSMVSDTSCTFPSGDGIFWKHWIQTKDYQCGSPLVSTRDGFIVGIHSASNFTNTNNYFTSVPKNFMELLTNQEAQQWVSGWRLNADSVLWGGHKVFMVKPEEPFQPVKEATQL [G150Y] | 0.0691 |  |  | 0.0528 |  |  | 
20 | MGESLFKGPRDYNPISSSICHLTNESDGHTTSLYGIGFGPFIITNKHLFRRNNGTLVVQSLHGVFKVKDTTTLQQHLVDGRDMIIIRMPKDFPPFPQKLKFREPQREERICLVTTNFQTKSMSSMVSDTSCTFPSGDGIFWKHWIQTKDGQCCSPLVSTRDGFIVGIHSASNFTNTNNYFTSVPKNFMELLTNQEAQQWVSGWRLNADSVLWGGHKVFMVKPEEPFQPVKEATQL [G153C] |  | 0.0555 |  |  | 0.054 |  | 0.0547
21 | MGESLFKGPRDYNPISSSICHLTNESDGHTTSLYGIGFGPFIITNKHLFRRNNGTLVVQSLHGVFKVKDTTTLQQHLVDGRDMIIIRMPKDFPPFPQKLKFREPQREERICLVTTNFQTKSMSSMVSDTSCTFPSGDGIFWKHWIQTKDGQCLSPLVSTRDGFIVGIHSASNFTNTNNYFTSVPKNFMELLTNQEAQQWVSGWRLNADSVLWGGHKVFMVKPEEPFQPVKEATQL [G153L] |  |  |  |  | 0.046 | 0.0371 | 0.0506
